Consider 25 compounds from US20190367516A1 (Bayer Pharma Aktiengesellschaft, priority 2015, published 2019).

The target of the test is T1, human M2 receptor (Homo sapiens, UniProt P08172).
T1 sequence (P08172 1-466): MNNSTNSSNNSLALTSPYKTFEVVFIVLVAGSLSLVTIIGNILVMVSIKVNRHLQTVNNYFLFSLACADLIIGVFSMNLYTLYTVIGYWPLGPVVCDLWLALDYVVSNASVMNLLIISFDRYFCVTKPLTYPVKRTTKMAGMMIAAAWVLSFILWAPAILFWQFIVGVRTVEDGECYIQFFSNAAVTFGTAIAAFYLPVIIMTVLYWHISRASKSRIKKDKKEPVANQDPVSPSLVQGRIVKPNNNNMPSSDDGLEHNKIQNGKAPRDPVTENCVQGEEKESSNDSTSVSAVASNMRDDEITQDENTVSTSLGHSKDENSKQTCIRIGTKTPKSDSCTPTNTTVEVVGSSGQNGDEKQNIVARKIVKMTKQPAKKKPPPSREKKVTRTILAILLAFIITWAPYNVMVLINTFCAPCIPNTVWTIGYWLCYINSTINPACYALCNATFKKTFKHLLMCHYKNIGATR
As to conditions: read-out: Efficiency, M2-GIRK1/4 activation test; boosting of the acetylcholine effect at an EC20 acetylcholine concentration.

The structures appear in SMILES notation.

As to `CC(NC(=O)c1cn(-c2ccc(F)cc2F)c2nc(NCC(F)(F)F)ccc2c1=O)C(F)(F)F` (stereo not shown) [Example 93, 1-(2,4-Difluorophenyl)-4-oxo-7-[(2,2,2-trifluoroethyl)amino]-N-[1,1,1-trifluoropropan-2-yl]-1,4-dihydro-1,8-naphthyridine-3-carboxamide], the Emax is 85.7%.

For `CC[C@@H](NC(=O)c1cn(-c2ccc(F)cc2F)c2nc(NCC(F)(F)F)ccc2c1=O)C(F)(F)F` [Example 94, 1-(2,4-Difluorophenyl)-4-oxo-N-[(2R)-1,1,1-trifluorobutan-2-yl]-7-[(2,2,2-trifluoroethyl)amino]-1,4-dihydro-1,8-naphthyridine-3-carboxamide], the Emax worked out at 98.7%.

Consider `O=C(NC1(C(F)(F)F)CCCC1)c1cn(-c2ccc(F)cc2F)c2nc(NCC(F)(F)F)ccc2c1=O` [Example 96, 1-(2,4-Difluorophenyl)-4-oxo-7-[(2,2,2-trifluoroethyl)amino]-N-[1-(trifluoromethyl)cyclopentyl]-1,4-dihydro-1,8-naphthyridine-3-carboxamide], for which the Emax worked out at 92.3%.

As to `O=C(NC12CCC(F)(CC1)CC2)c1cn(-c2ccc(F)cc2F)c2nc(NCC(F)(F)F)ccc2c1=O` [Example 97, 1-(2,4-Difluorophenyl)-N-(4-fluorobicyclo[2.2.2]oct-1-yl)-4-oxo-7-[(2,2,2-trifluoroethyl)amino]-1,4-dihydro-1,8-naphthyridine-3-carboxamide], the Emax came to 95%.

In the case of `CC12CCC(NC(=O)c3cn(-c4ccc(F)cc4F)c4nc(NCC(F)(F)F)ccc4c3=O)(CC1)CC2` [Example 98, 1-(2,4-Difluorophenyl)-N-(4-methylbicyclo[2.2.2]oct-1-yl)-4-oxo-7-[(2,2,2-trifluoroethyl)amino]-1,4-dihydro-1,8-naphthyridine-3-carboxamide], the Emax turned out to be 97.4%.

Turning to `CN(CCF)c1ccc2c(=O)c(C(=O)NC34CC5CC(CC(C5)C3)C4)cn(-c3ccc(F)cc3F)c2n1` [Example 101, 1-(2,4-Difluorophenyl)-7-[(2-fluoroethyl)(methyl)amino]-4-oxo-N-(tricyclo[3.3.1.1^3,7]dec-1-yl)-1,4-dihydro-1,8-naphthyridine-3-carboxamide], the Emax turned out to be 76.8%.

With `CN(CCF)c1ccc2c(=O)c(C(=O)NC34CC5CC(CC(F)(C5)C3)C4)cn(-c3ccc(F)cc3F)c2n1` [Example 102, 1-(2,4-Difluorophenyl)-7-[(2-fluoroethyl)(methyl)amino]-N-(3-fluorotricyclo[3.3.1.1^3,7]dec-1-yl)-4-oxo-1,4-dihydro-1,8-naphthyridine-3-carboxamide], the Emax was 94%.

Turning to `CC[C@H](NC(=O)c1cn(-c2ccc(F)cc2F)c2nc(N(C)CCF)ccc2c1=O)C(F)(F)F` [Example 103, 1-(2,4-Difluorophenyl)-7-[(2-fluoroethyl)(methyl)amino]-4-oxo-N-[(2S)-1,1,1-trifluorobutan-2-yl]-1,4-dihydro-1,8-naphthyridine-3-carboxamide], the Emax came to 95.7%.

Turning to `CCCC(NC(=O)c1cn(-c2ccc(F)cc2F)c2nc(N(C)CCF)ccc2c1=O)C(F)(F)F` (stereo not shown) [Example 106, 1-(2,4-Difluorophenyl)-7-[(2-fluoroethyl)(methyl)amino]-4-oxo-N-[1,1,1-trifluoropentan-2-yl]-1,4-dihydro-1,8-naphthyridine-3-carboxamide], the Emax is 100%.

With `CC(C)C(NC(=O)c1cn(-c2ccc(F)cc2F)c2nc(N(C)CCF)ccc2c1=O)C(F)(F)F` (stereo not shown) [Example 108, 1-(2,4-Difluorophenyl)-7-[(2-fluoroethyl)(methyl)amino]-4-oxo-N-[1,1,1-trifluoro-3-methylbutan-2-yl]-1,4-dihydro-1,8-naphthyridine-3-carboxamide], the Emax is 95%.

With `CN(CCF)c1ccc2c(=O)c(C(=O)NC3(C(F)(F)F)CC3)cn(-c3ccc(F)cc3F)c2n1` [Example 109, 1-(2,4-Difluorophenyl)-7-[(2-fluoroethyl)(methyl)amino]-4-oxo-N-[1-(trifluoromethyl)cyclopropyl]-1,4-dihydro-1,8-naphthyridine-3-carboxamide], the Emax amounted to 95%.

Turning to `CN(CCF)c1ccc2c(=O)c(C(=O)NC34CCC(F)(CC3)CC4)cn(-c3ccc(F)cc3F)c2n1` [Example 110, 1-(2,4-Difluorophenyl)-N-(4-fluorobicyclo[2.2.2]oct-1-yl)-7-[(2-fluoroethyl)(methyl)amino]-4-oxo-1,4-dihydro-1,8-naphthyridine-3-carboxamide], the Emax is 98%.

Turning to `CN(CCF)c1ccc2c(=O)c(C(=O)NC(C(F)(F)F)C(F)(F)F)cn(-c3ccc(F)cc3F)c2n1` [Example 111, 1-(2,4-Difluorophenyl)-7-[(2-fluoroethyl)(methyl)amino]-N-(1,1,1,3,3,3-hexafluoropropan-2-yl)-4-oxo-1,4-dihydro-1,8-naphthyridine-3-carboxamide], the Emax stood at 100%.

For the compound `CN(CC(F)F)c1ccc2c(=O)c(C(=O)NC34CC5CC(CC(C5)C3)C4)cn(-c3ccc(F)cc3F)c2n1` [Example 112, 7-[(2,2-Difluoroethyl)(methyl)amino]-1-(2,4-difluorophenyl)-4-oxo-N-(tricyclo[3.3.1.1^3,7]dec-1-yl)-1,4-dihydro-1,8-naphthyridine-3-carboxamide], the Emax came to 85.5%.

Regarding `CN(CC(F)F)c1ccc2c(=O)c(C(=O)NC(C(F)(F)F)C(F)(F)F)cn(-c3ccc(F)cc3F)c2n1` [Example 115, 7-[(2,2-Difluoroethyl)(methyl)amino]-1-(2,4-difluorophenyl)-N-[1,1,1,3,3,3-hexafluoropropan-2-yl)-4-oxo-1,4-dihydro-1,8-naphthyridine-3-carboxamide], the Emax turned out to be 91%.

As for `O=C(NC12CC3CC(CC(C3)C1)C2)c1cn(-c2ccc(F)cc2F)c2nc(N3CCC(O)(CO)CC3)ccc2c1=O` [Example 116, 1-(2,4-Difluorophenyl)-7-[4-hydroxy-4-(hydroxymethyl)piperidin-1-yl]-4-oxo-N-(tricyclo[3.3.1.1^3,7]dec-1-yl)-1,4-dihydro-1,8-naphthyridine-3-carboxamide], the Emax turned out to be 93.7%.

In the case of `O=C(NC12CC3CC(CC(C3)C1)C2)c1cn(-c2ccc(F)cc2F)c2nc(N3CCOC[C@H]3CO)ccc2c1=O` [Example 117, 1-(2,4-Difluorophenyl)-7-[(3R)-3-(hydroxymethyl)morpholin-4-yl]-4-oxo-N-(tricyclo[3.3.1.1^3,7]dec-1-yl)-1,4-dihydro-1,8-naphthyridine-3-carboxamide], the Emax stood at 90.5%.

Take `O=C(NC12CC3CC(CC(C3)C1)C2)c1cn(-c2ccc(F)cc2F)c2nc(NCC(F)F)ccc2c1=O` [Example 120, 7-[(2,2-Difluoroethyl)amino]-1-(2,4-difluorophenyl)-4-oxo-N-(tricyclo[3.3.1.1^3,7]dec-1-yl)-1,4-dihydro-1,8-naphthyridine-3-carboxamide]: the Emax is 86.5%.

For `CC[C@@H](NC(=O)c1cn(-c2ccc(F)cc2F)c2nc(NCC(F)F)ccc2c1=O)C(F)(F)F` [Example 123, 7-[(2,2-Difluoroethyl)amino]-1-(2,4-difluorophenyl)-4-oxo-N-[(2R)-1,1,1-trifluorobutan-2-yl]-1,4-dihydro-1,8-naphthyridine-3-carboxamide], the Emax was found to be 97.7%.

Take `CCCC(NC(=O)c1cn(-c2ccc(F)cc2F)c2nc(NCC(F)F)ccc2c1=O)C(F)(F)F` (stereo not shown) [Example 124, 7-[(2,2-Difluoroethyl)amino]-1-(2,4-difluorophenyl)-4-oxo-N-[1,1,1-trifluoropentan-2-yl]-1,4-dihydro-1,8-naphthyridine-3-carboxamide]: the Emax was 88.5%.

Turning to `O=C(NC(C(F)(F)F)C(F)(F)F)c1cn(-c2ccc(F)cc2F)c2nc(NCC(F)F)ccc2c1=O` [Example 126, 7-[(2,2-Difluoroethyl)amino]-1-(2,4-difluorophenyl)-N-(1,1,1,3,3,3-hexafluoropropan-2-yl)-4-oxo-1,4-dihydro-1,8-naphthyridine-3-carboxamide], the Emax worked out at 81%.

On to `O=C(NC12CC3CC(CC(C3)C1)C2)c1cn(-c2ccc(F)cc2F)c2nc(N3CCOC3=O)ccc2c1=O` [Example 128, 1-(2,4-Difluorophenyl)-4-oxo-7-(2-oxo-1,3-oxazolidin-3-yl)-N-(tricyclo[3.3.1.1^3,7]dec-1-yl)-1,4-dihydro-1,8-naphthyridine-3-carboxamide], for which the Emax turned out to be 91.7%.

For `O=C(NC12CC3CC(CC(C3)C1)C2)c1cn(-c2ccc(F)cc2F)c2nc(N3CCSC3)ccc2c1=O` [Example 129, 1-(2,4-Difluorophenyl)-4-oxo-7-(1,3-thiazolidin-3-yl)-N-(tricyclo[3.3.1.1^3,7]dec-1-yl)-1,4-dihydro-1,8-naphthyridine-3-carboxamide], the Emax amounted to 88.1%.

As to `O=C(NC12CC3CC(CC(C3)C1)C2)c1cn(-c2ccc(F)cc2F)c2nc(N3CCS(=O)(=O)C3)ccc2c1=O` [Example 130, 1-(2,4-Difluorophenyl)-7-(1,1-dioxido-1,3-thiazolidin-3-yl)-4-oxo-N-(tricyclo[3.3.1.1^3,7]dec-1-yl)-1,4-dihydro-1,8-naphthyridine-3-carboxamide], the Emax amounted to 90%.

On to `O=C(NC12CC3CC(CC(C3)C1)C2)c1cn(-c2ccc(F)cc2F)c2nc(N3CC[S+]([O-])C3)ccc2c1=O` (stereo not shown) [Example 131, 1-(2,4-Difluorophenyl)-7-(1-oxido-1,3-thiazolidin-3-yl)-4-oxo-N-(tricyclo[3.3.1.1^3,7]dec-1-yl)-1,4-dihydro-1,8-naphthyridine-3-carboxamide], for which the Emax was determined as 89.8%.
